Assay results published in the RNAGym collection of RNA variant scans (doi:10.1093/nar/gkz1192).
Read counts are not given, so values of variants with three or more changes are uncertain.

B1: CPEB3 Ribozyme (parent)
chain: UAACAGGGGGCCACAGCAGAAGCGUUCACGUCGCAGCCCCUGUCAGAUUCUGGUGAAUCUGCGAAUUCUGCUGUAUAUCUC

Variants of: B1
Test: self-cleavage, relative activity (ratio to wild type); higher = more cleavage; in vitro, sequencing
Procedure, shortened: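 Relative activity compares each variant's cleaved/total read fraction with that of the unmutated ribozyme. To get these fractions, barcoded CPEB3 ribozyme libraries from rounds of error-prone PCR were transcribed with T7 RNA polymerase for 5 hours at 37°C and then given 15 min of DNase I treatment before EDTA was added. The RNAs were reverse transcribed with template switching and sequenced on Illumina, and DNA sequencing linked barcodes to variants. A minimum of 5 reads applied, and three batches were averaged.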

Variant	self-cleavage
A15U A21G U80A	0.45
A15U A21U A35G U49C U67C	0.11
A15U A21U A56G	0.36
A15U A21U A64G	0.17
A15U A21U A65U	0.11
A15U A21U C44A C59G U60C	0.14
A15U A21U U25C C27A U54C A64G	0.08
A15U A21U U26A	0.06
A15U A21U U26A A65G	0.13
A15U A21U U48C A56G U76C	0.06
A15U A28C A35G U72C U78C	0.49
A15U A28C C39A U51C U74C A75G	0.08
A15U A28G A45G C81U	0.07
A15U A28G A64G	0.15
A15U A28G A65G U72A	0.13
A15U A28G C29U U41A U48C	0.06
A15U A28G C32A U43A A47U G73A	0.1
A15U A28G C50G U54C	0.17
A15U A28G C68U U69C	0.13
A15U A28G G36A U41A	0.16
A15U A28G G46A U49G A64U	0.1
A15U A28G U31A U51C C81A	0.11
A15U A28G U31A U69C	0.04
A15U A28G U31C A45U C62G U69A	0.07

Variant	self-cleavage
A15U A28G U31C U41A U51A A57U	0.13
A15U A28G U41C U69C	0.43
A15U A28G U43A U54C	0.45
A15U A28G U43C	0.08
A15U A28G U43C A45U A77U	0.07
A15U A28G U43C C50U U58C	0.07
A15U A28G U48C	0.57
A15U A28G U49C	0.12
A15U A28G U60A U78A	0.08
A15U A28G U60C G61A U76G	0.09
A15U A28G U66A	0.21
A15U A28U A35U	0.57
A15U A28U A47U C62U A65G	0.16
A15U A28U A64G U80A	0.36
A15U A28U A65G A77G	0.12
A15U A28U C29U U43A U60G	0.07
A15U A28U C29U U49C U51A A56G	0.12
A15U A28U C39U U43A A64U	0.08
A15U A28U U31C	0.47
A15U A28U U41C	0.31
A15U A28U U48C U72G A77G	0.24
A15U A28U U49C	0.41
A15U A28U U54A C79A	0.95
A15U A28U U60G	0.15

Variant	self-cleavage
A15U A35C A45G U48C U54A C68A	0.07
A15U A35C A64U	0.45
A15U A35G A57G	1.26
A15U A35G A64G U67C	0.42
A15U A35G A65G	1.05
A15U A35G U41C U66C	1.07
A15U A35G U43C A45G	1.24
A15U A35G U43C A45U	0.94
A15U A35G U48A U60G	0.21
A15U A35G U48C A57G U69C U72C	0.9
A15U A35G U54C A64G U80A	1.25
A15U A35G U80C	1.27
A15U A35U A45G	0.41
A15U A35U A56G U74A	0.61
A15U A35U A56G U76A	0.58
A15U A35U C38U U41A	0.08
A15U A35U G52U A64G	0.53
A15U A35U G61A	0.29
A15U A35U U41C A45G U72C	0.43
A15U A35U U43C U51C A57C	0.1
A15U A35U U48C U51A	0.1
A15U A35U U49C A64U U72A U80A	0.1
A15U A35U U51A	0.93
A15U A35U U69A A75G	0.17

Variant	self-cleavage
A15U A45C A57G U74C	0.09
A15U A45G A47G U72A	0.17
A15U A45G A56C A57G U74A	0
A15U A45G A64U U69A	0.14
A15U A45G G55A U60C	0.5
A15U A45G G55A U72A	0.44
A15U A45G U49A	0.16
A15U A45G U49A A75C	0.28
A15U A45G U51A U67C A75U	0.22
A15U A45G U51C U69C U72C	0.27
A15U A45G U74A	0.71
A15U A45U A47G	0.49
A15U A45U A57G A64G U69C	0.19
A15U A45U A57G A75G	0.11
A15U A45U G46A	0.08
A15U A45U U48C	0.5
A15U A47G A77G	0.86
A15U A47G U49C	0.33
A15U A47G U54C A64G U69A	0.12
A15U A47G U58C A65G	0.12
A15U A47G U66C	0.11
A15U A47G U67A	0.13
A15U A47G U69C	0.23
A15U A47U A64U U72A	0.14

Variant	self-cleavage
A15U A47U A77U	0.28
A15U A47U G73C U78A	0.61
A15U A47U U51C U66C	0.11
A15U A47U U69C	0.14
A15U A56G A57G	0.43
A15U A56G A57U	0.14
A15U A56G A64U	0.21
A15U A56G C81U	0.96
A15U A56G U67C U69A	0.11
A15U A56G U72C	0.75
A15U A56U A64G U74C U76C	0.3
A15U A56U U58C U66C U72A U74A	0.14
A15U A57G U67C	0.12
A15U A57G U76C	1.09
A15U A64C A65G U67C	0.12
A15U A64C A77U U78C	0.16
A15U A64G A77U	0.54
A15U A64G C79A	0.98
A15U A64G U69C	0.35
A15U A65U U72C	0.36
A15U A65U U74A	0.14
A15U A75U U78C	0.56
A15U C17A U41A G42A U76C	0.37
A15U C17U A35G U67C	0.1

Variant	self-cleavage
A15U C17U A77G	0.25
A15U C17U C34U U49C C50U A65G U78A	0.04
A15U C17U U41C A65G U80C	0.13
A15U C23A G30A C50A U51C G63U U80C	0.14
A15U C23A U31G A75U	0.06
A15U C23A U54G	0.17
A15U C23G A35G U41A U49C U67A	0.29
A15U C23G C39U U72A	0.13
A15U C23U A35G	0.87
A15U C23U A35G C62A	0.1
A15U C23U G36A A57G U67C	0.09
A15U C23U U48A U69G	0.17
A15U C27A U41C U54C	0.13
A15U C27A U41C U67C	0.2
A15U C27G A57G U74C	0.35
A15U C27U C29U G33C C38U A65G U76C	0.03
A15U C27U C37A	0.1
A15U C27U U41C U43C U49A U54C G73C	0.13
A15U C29A G63A C81U	0.14
A15U C29G U43C A56U U78C	0.12
A15U C29U G36A A65G	0.33
A15U C29U G52A	0.38
A15U C29U G52A A57G U69C	0.1
A15U C29U U67C	0.04

Variant	self-cleavage
A15U C32A A35G C40U	0.08
A15U C32U U41A U80C	0.21
A15U C32U U48C	0.09
A15U C34G G42A A56U	0.06
A15U C37U A56U A65U U80C	0.1
A15U C38A A47G A56G A77G U80C	0.07
A15U C38A U41C	0.22
A15U C38A U51C A64G	0.22
A15U C38G A45G	0.16
A15U C38G G42A	0.08
A15U C38U U51A A56G U80C	0.32
A15U C38U U54C	0.74
A15U C39G A64U	0.15
A15U C40U U43C U48C U60A U67C	0.09
A15U C44A A75G	0.04
A15U C44U U49C	0.07
A15U C44U U51C A64G U78C	0.11
A15U C44U U76C	0.24
A15U C50G A56U A75U	0.23
A15U C59A A64C A77U	0.08
A15U C59U U60A	0.2
A15U C68G A77C	0.14
A15U G16A A18U U51C U72C	0.13
